The values that follow come from the BET-seq Pho4 binding data (Le et al. 2018).

The other results are listed elsewhere or left out. These are noisy estimates, calculated here from bound and input reads.

This assay addresses T1, Pho4 (S. cerevisiae) (UniProt P07270).
T1 sequence: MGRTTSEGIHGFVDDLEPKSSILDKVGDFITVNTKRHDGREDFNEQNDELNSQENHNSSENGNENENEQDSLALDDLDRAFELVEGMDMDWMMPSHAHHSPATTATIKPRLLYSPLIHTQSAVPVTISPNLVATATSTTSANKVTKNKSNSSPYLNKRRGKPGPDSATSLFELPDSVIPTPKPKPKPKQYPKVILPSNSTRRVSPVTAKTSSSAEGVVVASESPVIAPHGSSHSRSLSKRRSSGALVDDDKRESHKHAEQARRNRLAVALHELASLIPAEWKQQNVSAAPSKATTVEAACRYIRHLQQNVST
Nature of the assay: relative binding free energy (BET-seq); higher = weaker binding. The settings on record: reference: library average.
On to TAATGCACGTGGTTCG, for which the “relative binding free energy” value is -0.02 kcal/mol. As for GGATCCACGTGTGGTT, the “relative binding free energy” value is 0.05 kcal/mol.

Consider TTTCGCACGTGTTCAT, for which the “relative binding free energy” value is -0.01 kcal/mol. For AAAGTCACGTGCGAGT the value was 0.25 kcal/mol.

For the sequence GGAACCACGTGGTTTT, the “relative binding free energy” value came out at 0.1 kcal/mol.

On to CGGCTCACGTGTGGTG, for which the “relative binding free energy” value amounted to 0.07 kcal/mol.

Turning to TCGTGCACGTGCGTTG, the “relative binding free energy” value was -0.12 kcal/mol. For AGGTGCACGTGCCGGT the value was -0.3 kcal/mol; for GTGTCCACGTGGAGTG, 0.07 kcal/mol.

As for GTTGTCACGTGAAGGG, the “relative binding free energy” value was determined as 0.38 kcal/mol. For TTGGGCACGTGCAGGA the value was -0.22 kcal/mol. With GTAAACACGTGGTGAG, the “relative binding free energy” value is -0.05 kcal/mol. As to GGGTTCACGTGTGGTC, the “relative binding free energy” value was determined as 0.36 kcal/mol. On to GGTTCCACGTGTTTAG, for which the “relative binding free energy” value amounted to 0.11 kcal/mol. In the case of GGATGCACGTGCGGAG, the “relative binding free energy” value was found to be 0.06 kcal/mol. For the sequence GAGGTCACGTGAAGGT, the “relative binding free energy” value was determined as 0.29 kcal/mol.

AGTTCCACGTGTTGGA: the “relative binding free energy” value came out at 0.03 kcal/mol. With GAATACACGTGGTGGA, the “relative binding free energy” value came to 0.2 kcal/mol.

GGCATCACGTGGGGCT: the “relative binding free energy” value stood at 0 kcal/mol. As to ATTCTCACGTGTGGGT, the “relative binding free energy” value was found to be 0.27 kcal/mol. For GGGGTCACGTGTGCAG, the “relative binding free energy” value came to 0.03 kcal/mol.

GGGAGCACGTGTGCGA: the “relative binding free energy” value was -0.14 kcal/mol.

For the sequence TTAGGCACGTGGATCG, the “relative binding free energy” value was -0.03 kcal/mol.

GGGATCACGTGTAGGC: the “relative binding free energy” value was 0.02 kcal/mol.

GGATGCACGTGGCATG: the “relative binding free energy” value is -0.12 kcal/mol. With TAAGGCACGTGAAGTG, the “relative binding free energy” value came to 0.11 kcal/mol. With GTTACCACGTGAGTGG, the “relative binding free energy” value amounted to 0.13 kcal/mol. For GTTGACACGTGCGTTG the value was 0.04 kcal/mol; for ATGGTCACGTGGACGT, 0.08 kcal/mol; for AATGGCACGTGTATAA, -0.01 kcal/mol. Regarding TTTTGCACGTGAAGGA, the “relative binding free energy” value was 0.32 kcal/mol.

As for TGTGGCACGTGTCGTA, the “relative binding free energy” value was -0.01 kcal/mol. Turning to TGTAGCACGTGCGGGT, the “relative binding free energy” value is -0.18 kcal/mol. With TTGTGCACGTGTGGAG, the “relative binding free energy” value was determined as 0.07 kcal/mol. For ATACACACGTGTGTTT the value was 0.07 kcal/mol; for GAAGTCACGTGGGCTT, 0.05 kcal/mol. Turning to GTTATCACGTGTTAAT, the “relative binding free energy” value is 0.2 kcal/mol. For GGGATCACGTGGGTAA the value was 0.02 kcal/mol; for AATGTCACGTGGTGCA, -0.14 kcal/mol; for CAGGACACGTGCGTTT, 0.3 kcal/mol. TAGGTCACGTGGGAAA: the “relative binding free energy” value is 0.07 kcal/mol.

Consider GTGTGCACGTGGATTA, for which the “relative binding free energy” value was determined as 0.06 kcal/mol. Regarding CTGTTCACGTGTGGGC, the “relative binding free energy” value was determined as 0.29 kcal/mol. For TCGAGCACGTGTGTTG the value was 0.06 kcal/mol; for GCGGTCACGTGGTATT, 0.18 kcal/mol. As to TTAAGCACGTGGGGTT, the “relative binding free energy” value is -0.14 kcal/mol.

As for GTGAACACGTGATGTA, the “relative binding free energy” value amounted to 0.04 kcal/mol. In the case of GTGGACACGTGTGCGC, the “relative binding free energy” value was -0.01 kcal/mol. For TGGGCCACGTGTGTCA the value was -0.06 kcal/mol. Regarding AGTGGCACGTGATGGC, the “relative binding free energy” value turned out to be 0 kcal/mol. As for TAGAGCACGTGTGCGA, the “relative binding free energy” value is -0.12 kcal/mol. Consider TGCTTCACGTGTATGA, for which the “relative binding free energy” value came to 0.15 kcal/mol. For GTCGACACGTGGTGAT, the “relative binding free energy” value turned out to be 0.07 kcal/mol. Consider GTGTTCACGTGTGCAT, for which the “relative binding free energy” value stood at 0.2 kcal/mol.

Take CTTGTCACGTGGGGGA: the “relative binding free energy” value was -0.08 kcal/mol. On to AGGACCACGTGGGAGG, for which the “relative binding free energy” value is -0.22 kcal/mol. TTAGGCACGTGTACGA: the “relative binding free energy” value is -0.05 kcal/mol. Regarding CGTTGCACGTGTGGGT, the “relative binding free energy” value came out at 0.1 kcal/mol.

For the sequence GGCGTCACGTGCTTTG, the “relative binding free energy” value was 0.16 kcal/mol. As for CGGGGCACGTGCGCTG, the “relative binding free energy” value was -0.32 kcal/mol. For ATACGCACGTGATGGG the value was -0.05 kcal/mol; for GTAGTCACGTGTCAGG, 0.25 kcal/mol. For GAAGTCACGTGAGGGG the value was 0.33 kcal/mol; for CGCGTCACGTGGTGTT, 0.01 kcal/mol; for ACGGGCACGTGCAGGG, -0.21 kcal/mol. Turning to TCGGCCACGTGGGTGA, the “relative binding free energy” value is -0.2 kcal/mol. For AGGGTCACGTGAATGC the value was 0.3 kcal/mol. With TCTAGCACGTGGTGTT, the “relative binding free energy” value was -0.18 kcal/mol. In the case of GGGAACACGTGTTGAT, the “relative binding free energy” value stood at 0.29 kcal/mol. In the case of GTAATCACGTGAGATG, the “relative binding free energy” value amounted to 0.52 kcal/mol. With CGGATCACGTGTCTGG, the “relative binding free energy” value turned out to be 0.31 kcal/mol. On to GAGAACACGTGGGGGA, for which the “relative binding free energy” value is -0.05 kcal/mol. Turning to ATGTTCACGTGGAGAA, the “relative binding free energy” value amounted to 0.24 kcal/mol. For TTGTGCACGTGTAACA the value was 0.16 kcal/mol. In the case of TTCTTCACGTGAGGGG, the “relative binding free energy” value is 0.45 kcal/mol. Take AAGTGCACGTGAAGTT: the “relative binding free energy” value was 0.22 kcal/mol. Take TTCTGCACGTGTATAG: the “relative binding free energy” value was 0.01 kcal/mol. For the sequence GTGGGCACGTGACGGC, the “relative binding free energy” value turned out to be 0.25 kcal/mol. On to AAATTCACGTGTAATT, for which the “relative binding free energy” value came out at 0.42 kcal/mol. For AACGGCACGTGGTAGT the value was -0.2 kcal/mol; for AGAGCCACGTGGGTTG, -0.26 kcal/mol. For the sequence GGTTTCACGTGTGGTA, the “relative binding free energy” value is 0.34 kcal/mol. As for GGCGCCACGTGTGTTG, the “relative binding free energy” value is -0.11 kcal/mol. For AAGTCCACGTGTGAGT the value was 0.26 kcal/mol; for GAATTCACGTGCGTTA, 0.31 kcal/mol; for GATGACACGTGCCGGG, 0.14 kcal/mol. For TCGGTCACGTGTTGCG the value was 0 kcal/mol; for GTAGTCACGTGGAGAG, 0.27 kcal/mol; for GCATGCACGTGTTGGT, -0.02 kcal/mol. For the sequence CTTGTCACGTGAGGGT, the “relative binding free energy” value amounted to 0.32 kcal/mol. For TTAGTCACGTGGGCCG the value was -0.05 kcal/mol; for TCGATCACGTGGATTT, 0.37 kcal/mol. As to GTTGACACGTGGTTCG, the “relative binding free energy” value was 0.04 kcal/mol. Take ATAAACACGTGGTTGG: the “relative binding free energy” value was -0.09 kcal/mol.

For the sequence GTGACCACGTGTAGGT, the “relative binding free energy” value is -0.08 kcal/mol. For GGACGCACGTGGGTCA the value was -0.09 kcal/mol; for TGCTTCACGTGGTATT, 0.21 kcal/mol; for GTGGACACGTGTAGTG, 0.04 kcal/mol. For TGAATCACGTGCCGTG, the “relative binding free energy” value was determined as 0.2 kcal/mol.

With AAGTTCACGTGTTTAT, the “relative binding free energy” value was determined as 0.13 kcal/mol. For the sequence TTCATCACGTGGGTAG, the “relative binding free energy” value worked out at 0.1 kcal/mol. For the sequence TGGACCACGTGTGTGG, the “relative binding free energy” value was 0.07 kcal/mol. For TTTAGCACGTGTGAGG the value was 0.12 kcal/mol.

For the sequence TCAGGCACGTGTTGCT, the “relative binding free energy” value was -0.01 kcal/mol. Consider TACTTCACGTGTTTAT, for which the “relative binding free energy” value came out at 0.24 kcal/mol. For GGGGCCACGTGGAGTT the value was 0.07 kcal/mol; for GTCGGCACGTGAGGAT, 0.22 kcal/mol; for GAGATCACGTGTAGTA, 0.19 kcal/mol.

As for GTAATCACGTGGGTAA, the “relative binding free energy” value came out at 0.05 kcal/mol. For TAGTTCACGTGTAGTA the value was 0.3 kcal/mol; for ATTAACACGTGGGAGG, -0.13 kcal/mol; for TTGGGCACGTGTTTTG, -0.04 kcal/mol. With AAGGGCACGTGAGGGG, the “relative binding free energy” value came out at 0.06 kcal/mol.

With TATGGCACGTGTAAGG, the “relative binding free energy” value was 0 kcal/mol. For TGTTTCACGTGCGAAT the value was 0.19 kcal/mol; for AGTGACACGTGGTGAT, -0.14 kcal/mol; for TGTGCCACGTGAAATT, 0.39 kcal/mol.

In the case of TAATTCACGTGTTCTG, the “relative binding free energy” value turned out to be 0.2 kcal/mol. Turning to AGGTTCACGTGTATGC, the “relative binding free energy” value was determined as 0.28 kcal/mol. With TTAGACACGTGTCTGG, the “relative binding free energy” value is 0.04 kcal/mol. Take TTTTGCACGTGGGACC: the “relative binding free energy” value was -0.03 kcal/mol. In the case of ATTTACACGTGAAGAT, the “relative binding free energy” value was 0.22 kcal/mol. In the case of TAGATCACGTGGGCGT, the “relative binding free energy” value came to 0 kcal/mol. In the case of TGGTTCACGTGGGTTC, the “relative binding free energy” value turned out to be 0.17 kcal/mol. Turning to TTGTGCACGTGTCATG, the “relative binding free energy” value turned out to be 0.07 kcal/mol. As for TGGGTCACGTGACTTA, the “relative binding free energy” value came to 0.08 kcal/mol.

With ATGAGCACGTGGGCGC, the “relative binding free energy” value is -0.15 kcal/mol. For TTTTTCACGTGTCGGG the value was 0.31 kcal/mol; for GGCGCCACGTGGGGCA, -0.18 kcal/mol. For GATGGCACGTGATCGT the value was -0.01 kcal/mol; for CATTTCACGTGAGCGG, 0.49 kcal/mol.

TATGGCACGTGCGGTT: the “relative binding free energy” value is -0.16 kcal/mol.

On to ACAGGCACGTGGTAGG, for which the “relative binding free energy” value is -0.4 kcal/mol. CATGTCACGTGGGCAG: the “relative binding free energy” value was -0.08 kcal/mol.

As for TGAGGCACGTGAGTTG, the “relative binding free energy” value was found to be 0.08 kcal/mol. On to GTACACACGTGTTGTG, for which the “relative binding free energy” value was found to be 0.12 kcal/mol.

As to GATTGCACGTGGTCGT, the “relative binding free energy” value is -0.09 kcal/mol.

With TAGGTCACGTGGGCCG, the “relative binding free energy” value worked out at 0.01 kcal/mol. For TGGGGCACGTGAGACG, the “relative binding free energy” value was -0.05 kcal/mol. For ATGGGCACGTGGTACA, the “relative binding free energy” value was -0.25 kcal/mol. In the case of TAGTTCACGTGTGATT, the “relative binding free energy” value worked out at 0.29 kcal/mol. Regarding TCAGTCACGTGAAGTT, the “relative binding free energy” value came to 0.49 kcal/mol. For the sequence GTTCGCACGTGGTGTG, the “relative binding free energy” value is -0.09 kcal/mol. GGTATCACGTGCTTGA: the “relative binding free energy” value stood at 0.12 kcal/mol. For CTTTTCACGTGTAGTT, the “relative binding free energy” value was 0.25 kcal/mol. On to ATCGTCACGTGGAAGG, for which the “relative binding free energy” value came to 0.05 kcal/mol.
